Assay results taken from PubChem BioAssay AID504706 (National Center for Advancing Translational Sciences (NCATS), 2011).
“And” between values parts separate entries of the source, which are not always exact repeats. Identical values can stand only once. Screen size: about 320,000 compounds; about 200 (0.062%) were called active. The shares of active, inactive and inconclusive entries below differ from those in the screen. Calls follow the shape of the dose curve; as a rule, active = well fitted activation curve with a large enough effect; inconclusive = small, poorly fitted or top-dose-only effect; inactive = no such curve, though single readings can be large or run the other way. Potencies beside an inconclusive call are fits to weak or partial responses and may not hold up.

Assay: qHTS assay for re-activators of p53 using a Luc reporter; also: nearly all actives have a fitted effect of over 45% in size; as to activity change, positive = activation: % of control where 0% means no effect
Settings: H1299 p53-A138V BP100-luciferase reporter, luminescence, 24 h; series mostly up to 92.2 µM; activity change, positive = activation: at the top concentration
In short: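 H1299 (p53-null), stable ts p53-A138V + BP100-Luc; 1000 cells/well, Opti-MEM/10% FBS; cpd 4 pt, 1:5; 24 h, 37 deg C, 5% CO2; detection reagent 10 min RT; luminescence.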
Potency is read from the fitted curve at half-maximal effect; tags tell the direction and shape of the fitted curve.

Row | SMILES | Potency | activity change, positive = activation
1 | c1cncc(-c2nc3c(ccc4ccccc43)[nH]2)c1 | inconclusive: 50.1 µM [activator, partial curve, poor fit] | –
2 | CC1CCc2nc(NC(=O)C3CCCO3)sc2C1 (centres undefined) | inconclusive: 2.51 µM [activator, full curve, poor fit] | –
3 | CC1CC(C)CN(c2ncnc3c2cnn3-c2ccc(Cl)cc2)C1 (centres undefined) | inconclusive: 63.1 µM [activator, partial curve, poor fit] | –
4 | Cc1cccnc1Nc1nc(-c2ccc(O)cc2)cs1 | inconclusive: 56.2 µM [activator, partial curve, poor fit] | –
5 | CCCc1ncc(C(O)(c2ccccc2)c2ccc(C)cc2)n1C (centres undefined) | – | inactive: -8.24%
6 | O=C(Nc1ccc(N2CCOCC2)nc1)c1ccc(F)cc1 | inconclusive: 17.8 µM [activator, single point] | –
7 | Cc1ccc(S(=O)(=O)NC(C)(C)CSc2nnc(Nc3ccccc3)s2)cc1 | – | inactive: 2.46%
8 | CC1CCC(NC(=O)c2cc3c(s2)CS(=O)(=O)C3)CC1 (centres undefined) | inconclusive: 70.8 µM [activator, single point] | –
9 | O=C(N/N=C\c1cc(Cl)ccc1O)c1ccc(S(=O)(=O)N2CCCCC2)cc1 | inconclusive: 39.8 µM [activator, partial curve, poor fit] | –
10 | NC(=O)C(C(=O)/C=C/c1ccc(Cl)cc1)=C1SCCS1 | inconclusive: 7.94 µM [activator, full curve, poor fit] | –
11 | CCC(=O)N1CCN(c2ccc(Cl)cc2NC(=O)Cc2ccc(Cl)cc2)CC1 | – | inactive: -3.63%
12 | CC(C)[C@H](NC(=O)c1ccc(Cl)cc1Cl)C(=O)NNc1cccc(C(=O)O)c1 | inconclusive: 44.7 µM [activator, partial curve, poor fit] | –
13 | COc1cc(/C=N/NC(=O)c2ccoc2C)ccc1O | inconclusive: 50.1 µM [activator, partial curve, poor fit] | –
14 | CCOc1ccc2[nH]c3c(N4CCN(c5ccccn5)CC4)ncnc3c2c1 | – | inactive: -31%
15 | CCN(CC)C(=O)c1cc2c(=O)n3ccccc3nc2s1 | inconclusive: 12.6 µM [activator, single point] | –
16 | Cc1ccc(-c2cc(C(=O)NC3=NCCS3)c3ccccc3n2)cc1C | inconclusive: 17.8 µM [activator, partial curve, poor fit] | –
17 | CC(C(=O)NC1CCCC1)N(C(=O)c1ccc(-c2ccccc2)[nH]1)c1ccccc1F (centres undefined) | – | inactive: -1.04%
18 | CCc1nc2c(sc3nc4c(cc32)COC(C)(C)C4)c(=O)n1Cc1ccco1 | inconclusive: 56.2 µM [activator, single point] | –
19 | CC[n+]1c(/C=C2\C=C(C)CC(C)(C)C2)sc2ccccc21 | – | inactive: -15.2%
20 | O=C(/C=C/c1ccc(F)cc1)NCc1cccs1 | inconclusive: 8.91 µM [activator, full curve, poor fit] | –
21 | O=C(c1ccccc1)c1cnc(-c2ccccc2)s1 | inconclusive: 56.2 µM [activator, partial curve, poor fit] | –
22 | COc1ccc(NC(=O)CN(C)C(=O)c2n[nH]c3ccccc23)cc1 | inconclusive: 11.2 µM [activator, partial curve, poor fit] | –

Row | SMILES | Potency | activity change, positive = activation
23 | CC(=O)N/N=C(/C)c1ccc(NC(=O)c2csc(C)c2C)cc1 | inconclusive: 31.6 µM [activator, full curve, poor fit] | –
24 | O=C(NCCCn1ccnc1)c1ccc2c(c1)OCCO2 | inconclusive: 35.5 µM [activator, single point] | –
25 | O=C(COC(=O)CNC(=O)C1CCCCC1)NCc1ccccc1 | inconclusive: 31.6 µM [activator, partial curve, poor fit] | –
26 | O=C(CSCc1ccccc1)N=Nc1c(O)[nH]c2ccccc12 | inconclusive: 10 µM [activator, full curve, poor fit] | –
27 | N/C(=N\OC(=O)c1ccco1)c1cccc([N+](=O)[O-])c1 | – | inactive: -3.76%
28 | CCC(=O)Nc1cccc(-c2cn3ccccc3n2)c1 | inconclusive: 20 µM [activator, full curve, poor fit] | –
29 | CC(=O)n1cc(/C=N/NC(=O)c2ccc(Cl)cc2)c2ccccc21 | inconclusive: 15.8 µM [activator, full curve, poor fit] | –
30 | Oc1ccc(Cl)cc1-c1cc(-c2ccccc2Cl)[nH]n1 | inconclusive: 11.2 µM [activator, full curve, poor fit] | –
31 | COc1ccc(-c2cc(=O)oc3cc(OCC(=O)Nc4ccccn4)ccc23)cc1 | inconclusive: 56.2 µM [activator, partial curve, poor fit] | –
32 | Cc1ccc(O)c(N=Cc2cccs2)c1 | inconclusive: 50.1 µM [activator, partial curve, poor fit] | –
33 | COC(=O)c1ccc(-n2c(C)ccc2-c2ccccc2)cc1 | inconclusive: 50.1 µM [activator, partial curve, poor fit] | –
34 | COC(=O)C1C(=O)c2c([nH]c(C(=O)OC3CCCCC3)c2C)CC1C (centres undefined) | inconclusive: 2.51 µM [activator, partial curve, poor fit] | –
35 | COC(=O)c1cn(-c2ccccc2)nc1-c1ccc(OC)cc1 | – | inactive: -5.63%
36 | c1csc(-c2nnc(N3CCCCCC3)c3ccccc23)c1 | inconclusive: 50.1 µM [activator, partial curve, poor fit] | –
37 | CCN(CC)S(=O)(=O)c1ccc2[nH]c(=O)cc(C(=O)Nc3cccc(C(C)=O)c3)c2c1 | inconclusive: 14.1 µM [activator, single point] | –
38 | Clc1ccc(Cc2ccc(Cl)nn2)c(Cl)c1 | inconclusive: 79.4 µM [activator, single point] | –
39 | CC(CN1CCCC1)OC(=O)c1ccccc1Cl (centres undefined) | inconclusive: 70.8 µM [activator, single point] | –
40 | COc1cccc(NC(=O)C(C)Sc2nnc(C3CC3)n2C2CC2)c1 (centres undefined) | inconclusive: 35.5 µM [activator, single point] | –
41 | CCN1CCN(C(=O)c2ccc(Cl)c(S(=O)(=O)N(C)c3ccccc3)c2)CC1 | inconclusive: 6.31 µM [activator, partial curve, poor fit] | –
42 | Cc1cccc(N(C(=O)c2csnn2)C(C(=O)NCc2ccccc2)c2ccc(C)o2)c1 (centres undefined) | – | inactive: -0.355%
43 | O=c1c(-c2ccc3c(c2)OCCO3)coc2cc(O)cc(O)c12 | inconclusive: 11.2 µM [activator, full curve, poor fit] | –
44 | Brc1ccccc1-c1nc2c3ccccc3ncn2n1 | inconclusive: 2.51 µM [activator, full curve, poor fit] | –

Row | SMILES | Potency | activity change, positive = activation
45 | CCOC(=O)C1=C(C)NC(=O)C1CC(=O)Nc1ccccc1 (centres undefined) | inconclusive: 50.1 µM [activator, partial curve, poor fit] | –
46 | COc1cc(C2NC(C(=O)O)CS2)ccc1OCc1ccccc1C#N (centres undefined) | inconclusive: 70.8 µM [activator, partial curve, poor fit] | –
47 | CC1CCC2(CC1)NC(=O)N(CC(=O)Nc1ccc(F)cc1)C2=O (centres undefined) | inconclusive: 35.5 µM [activator, single point] | –
48 | CN(C)c1ccc(C(=O)OCC(=O)c2ccc[nH]2)cc1 | inconclusive: 4.47 µM [activator, full curve, poor fit] | –
49 | COc1ccc2cc3cc(C(=O)Nc4ccccc4N4CCN(C)CC4)oc3nc2c1 | – | inactive: -4.98%
50 | CC(=O)N1[C@H](C)C=C[C@]1(Cc1ccccc1)C(=O)NCc1cc(F)cc(C(F)(F)F)c1 | inconclusive: 70.8 µM [activator, single point] | –
51 | COc1ccc(NC(=S)NCCCN2CCCC2)cc1 | – | inactive: 4.82%
52 | COc1cccc(-c2cc(C(=O)Nc3ccccc3SC)no2)c1 | inconclusive: 50.1 µM [activator, partial curve, poor fit] | –
53 | Clc1nnc(N/N=C/c2ccccc2)c2ccccc12 | inconclusive: 10 µM [activator, partial curve, poor fit] | –
54 | O=C(CSc1nc2ccccc2o1)N/N=C/c1ccco1 | inconclusive: 50.1 µM [activator, partial curve, poor fit] | –
55 | CC(=O)/C=C(\C)Nc1ccccc1O | inconclusive: 31.6 µM [activator, full curve, poor fit] | –
56 | C/C(=N/NC(=O)c1ccc2c(c1)OCO2)c1ccc(NC(=O)C(F)(F)F)cc1 | inconclusive: 11.2 µM [activator, partial curve, poor fit] | –
57 | Oc1ccc(-c2nccc(-c3cccs3)n2)cc1 | inconclusive: 17.8 µM [activator, partial curve, poor fit] | –
58 | CC(C)CN(C)C(=O)CCc1nnc(Cc2cccc(C(F)(F)F)c2)o1 | inconclusive: 17.8 µM [activator, single point] | –
59 | O=C(CCC(=O)Nc1ccccc1Cl)NNC(=O)Nc1cccc([N+](=O)[O-])c1 | inconclusive: 70.8 µM [activator, single point] | –
60 | Cc1cccc(NC(=O)c2cc(S(=O)(=O)N3CCCCC3)ccc2Cl)n1 | – | inactive: 4.37%
61 | O=C(CNc1ccc2c(c1)OCO2)N/N=C\c1cn(Cc2ccc(F)cc2)c2ccccc12 | – | inactive: -10.5%
62 | COc1ccc(CCc2nc(C)ccc2O)cc1 | inconclusive: 50.1 µM [activator, partial curve, poor fit] and inconclusive: 39.8 µM [activator, partial curve] | –
63 | Cc1ccc(S(=O)(=O)Nc2ccc3c(c2)C(=O)N([C@H](C)CO)C[C@@H](C)[C@@H](CN(C)C(=O)Nc2cccc4ccccc24)O3)cc1 | – | inactive: -4.09%
64 | N#C/C(=C/c1ccc(N2CCCCC2)o1)C(=O)Nc1ccc(Cl)cc1 | inconclusive: 35.5 µM [activator, partial curve, poor fit] | –
